This note sets out measurements from the supplement of paper PMC9588766.

Structures can show the parent of a compound that is named as a salt. In all, about 1,900 compounds were measured (“cell viability of compound + 1 nM pemigatinib relative to pemigatinib-only (DMSO) wells”: median about 0.95, lowest 2% from about 0.22 on). This is one part of the list.

For this assay, the system named is PDC-DUC18828. In words: cell viability of compound + 1 nM pemigatinib relative to pemigatinib-only (DMSO) wells (fraction); PDC-DUC18828 is a patient-derived cholangiocarcinoma cell line; higher = less growth inhibition. The following applies: first compound 1 µM; pemigatinib concentration 1 nM; 72 h. The procedure: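 Selleck Bioactive library screen in the patient-derived FGFR2 fusion-positive ICC cell line PDC-DUC18828 (500 cells/well). Each compound was tested at 1 uM with 1 nM pemigatinib, in triplicate, for 72 h. Viability was read by CellTiter-Glo and normalised to plate DMSO controls. Value is the paper's averaged normalised viability.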
Consider `NC(=O)c1nc(F)cnc1O` [Favipiravir (T-705)] + CCN1C(=O)N(c2c(F)c(OC)cc(OC)c2F)Cc2cnc3[nH]c(CN4CCOCC4)cc3c21 [pemigatinib], for which the cell viability turned out to be 0.964.
The value for `CC(C)n1nc(-c2ccc3oc(N)nc3c2)c2c(N)ncnc21` + CCN1C(=O)N(c2c(F)c(OC)cc(OC)c2F)Cc2cnc3[nH]c(CN4CCOCC4)cc3c21 [pemigatinib] was 0.196; that for `O=C(O)c1cc(C(F)(F)F)ccc1N1CC[C@H](OCc2ccccn2)C1` + CCN1C(=O)N(c2c(F)c(OC)cc(OC)c2F)Cc2cnc3[nH]c(CN4CCOCC4)cc3c21 [pemigatinib] was 0.997.
As for `N[C@@H](Cc1c[nH]c2ccc(O)cc12)C(=O)O` [5-hydroxytryptophan (5-HTP)] + CCN1C(=O)N(c2c(F)c(OC)cc(OC)c2F)Cc2cnc3[nH]c(CN4CCOCC4)cc3c21 [pemigatinib], the figure is 0.93; as for `CC(=O)Nc1nc2c(Oc3cc(-c4ccc(C(F)(F)F)cc4)ncn3)cccc2s1` + CCN1C(=O)N(c2c(F)c(OC)cc(OC)c2F)Cc2cnc3[nH]c(CN4CCOCC4)cc3c21 [pemigatinib], 0.993.
For the compound `Cn1cc(-c2cnn3c(N)c(Br)c([C@@H]4CCCNC4)nc23)cn1` + CCN1C(=O)N(c2c(F)c(OC)cc(OC)c2F)Cc2cnc3[nH]c(CN4CCOCC4)cc3c21 [pemigatinib], the cell viability worked out at 0.9.
As for `O=C(O)COCCN1CCN(C(c2ccccc2)c2ccc(Cl)cc2)CC1` (centres undefined) [Cetirizine DiHCl] + CCN1C(=O)N(c2c(F)c(OC)cc(OC)c2F)Cc2cnc3[nH]c(CN4CCOCC4)cc3c21 [pemigatinib], the figure is 0.984.
The value for `C=C1C[C@@]2(O)O[C@@]3(C[C@H]2C(C)C)[C@@H](C)CC[C@@H]13` [Curcumol] + CCN1C(=O)N(c2c(F)c(OC)cc(OC)c2F)Cc2cnc3[nH]c(CN4CCOCC4)cc3c21 [pemigatinib] was 0.937; that for `C=CC(=O)Nc1cccc(Nc2nc(Nc3ccc(Oc4ccnc(C(=O)NC)c4)cc3)ncc2F)c1` + CCN1C(=O)N(c2c(F)c(OC)cc(OC)c2F)Cc2cnc3[nH]c(CN4CCOCC4)cc3c21 [pemigatinib] was 0.899; that for `CCCSc1nc(N[C@@H]2C[C@H]2c2ccc(F)c(F)c2)c2nnn([C@@H]3C[C@H](OCCO)[C@@H](O)[C@H]3O)c2n1` [Ticagrelor] + CCN1C(=O)N(c2c(F)c(OC)cc(OC)c2F)Cc2cnc3[nH]c(CN4CCOCC4)cc3c21 [pemigatinib] was 0.892.
Take `COc1ccc(-c2ccc3ncc4c(c3c2)n(-c2ccc(N3CCNCC3)c(C(F)(F)F)c2)c(=O)n4C)cn1` + CCN1C(=O)N(c2c(F)c(OC)cc(OC)c2F)Cc2cnc3[nH]c(CN4CCOCC4)cc3c21 [pemigatinib]: the cell viability is 0.0142.
On to `CC(=O)O[C@]1(C(C)=O)CC[C@H]2[C@@H]3C=C(Cl)C4=CC(=O)[C@@H]5C[C@@H]5[C@]4(C)[C@H]3CC[C@@]21C` [Cyproterone Acetate] + CCN1C(=O)N(c2c(F)c(OC)cc(OC)c2F)Cc2cnc3[nH]c(CN4CCOCC4)cc3c21 [pemigatinib], for which the cell viability was found to be 0.955.
As for `CC(C)c1cc(-c2n[nH]c(=O)n2-c2ccc3c(ccn3C)c2)c(O)cc1O` [Ganetespib (STA-9090)] + CCN1C(=O)N(c2c(F)c(OC)cc(OC)c2F)Cc2cnc3[nH]c(CN4CCOCC4)cc3c21 [pemigatinib], the figure is 0.318; as for `N[C@H]1C[C@@H]1c1ccc(-c2cccc(O)c2)cc1` + CCN1C(=O)N(c2c(F)c(OC)cc(OC)c2F)Cc2cnc3[nH]c(CN4CCOCC4)cc3c21 [pemigatinib], 0.993; as for `CC(CCc1ccccc1)NCC(O)c1ccc(O)c(C(N)=O)c1` (centres undefined) [Labetalol HCl] + CCN1C(=O)N(c2c(F)c(OC)cc(OC)c2F)Cc2cnc3[nH]c(CN4CCOCC4)cc3c21 [pemigatinib], 1.
The value for `CCOC(=O)[C@H](CCc1ccccc1)N[C@@H](C)C(=O)N1Cc2ccccc2C[C@H]1C(=O)O` [Quinapril HCl] + CCN1C(=O)N(c2c(F)c(OC)cc(OC)c2F)Cc2cnc3[nH]c(CN4CCOCC4)cc3c21 [pemigatinib] was 0.965; that for `Cc1oncc1C(=O)Nc1ccc(C(F)(F)F)cc1` [Leflunomide] + CCN1C(=O)N(c2c(F)c(OC)cc(OC)c2F)Cc2cnc3[nH]c(CN4CCOCC4)cc3c21 [pemigatinib] was 0.954.
The value for `O=C(O)c1cccnc1Nc1cccc(C(F)(F)F)c1` [Niflumic acid] + CCN1C(=O)N(c2c(F)c(OC)cc(OC)c2F)Cc2cnc3[nH]c(CN4CCOCC4)cc3c21 [pemigatinib] was 0.839; that for `CC1CC(OC(=O)C(O)c2ccccc2)CC(C)(C)C1` (centres undefined) [Cyclandelate] + CCN1C(=O)N(c2c(F)c(OC)cc(OC)c2F)Cc2cnc3[nH]c(CN4CCOCC4)cc3c21 [pemigatinib] was 0.966.
As to `CC1C(=O)OC2C(O)C34C5CC(C(C)(C)C)C36C(OC(=O)C6O)OC4(C(=O)O5)C12O` (centres undefined) [Ginkgolide B] + CCN1C(=O)N(c2c(F)c(OC)cc(OC)c2F)Cc2cnc3[nH]c(CN4CCOCC4)cc3c21 [pemigatinib], the cell viability was 0.99.
The value for `CN(C)/N=N/c1[nH]cnc1C(N)=O` [Dacarbazine] + CCN1C(=O)N(c2c(F)c(OC)cc(OC)c2F)Cc2cnc3[nH]c(CN4CCOCC4)cc3c21 [pemigatinib] was 0.924; that for `Cc1onc(-c2c(Cl)cccc2Cl)c1C(=O)N[C@@H]1C(=O)N2[C@@H]1SC(C)(C)[C@@H]2C(=O)O` [Dicloxacillin Sodium] + CCN1C(=O)N(c2c(F)c(OC)cc(OC)c2F)Cc2cnc3[nH]c(CN4CCOCC4)cc3c21 [pemigatinib] was 1.01; that for `Cc1cc(NC(=O)Nc2ccc(N(C)C)cc2)c2cc(F)cc(F)c2n1` + CCN1C(=O)N(c2c(F)c(OC)cc(OC)c2F)Cc2cnc3[nH]c(CN4CCOCC4)cc3c21 [pemigatinib] was 0.939.
As for `Cn1cc(-c2ccc3ncc(Cc4ccc5ncccc5c4)n3n2)cn1` + CCN1C(=O)N(c2c(F)c(OC)cc(OC)c2F)Cc2cnc3[nH]c(CN4CCOCC4)cc3c21 [pemigatinib], the figure is 1.01.
Regarding `Nc1nc2c(ncn2[C@@H]2O[C@H](CO)[C@@H](O)[C@H]2O)c(=O)[nH]1` [Guanosine] + CCN1C(=O)N(c2c(F)c(OC)cc(OC)c2F)Cc2cnc3[nH]c(CN4CCOCC4)cc3c21 [pemigatinib], the cell viability was determined as 0.943.
The value for `CC(C)OC(=O)[C@H](C)N[P@](=O)(OC[C@H]1O[C@@H](n2ccc(=O)[nH]c2=O)[C@](C)(F)[C@@H]1O)Oc1ccccc1` [Sofosbuvir (PSI-7977, GS-7977)] + CCN1C(=O)N(c2c(F)c(OC)cc(OC)c2F)Cc2cnc3[nH]c(CN4CCOCC4)cc3c21 [pemigatinib] was 0.92; that for `O=C1[C@H](Cc2ccc(O)cc2)N2C(=O)CCN(C(=O)NCc3ccccc3)[C@H]2CN1Cc1cccc2ccccc12` + CCN1C(=O)N(c2c(F)c(OC)cc(OC)c2F)Cc2cnc3[nH]c(CN4CCOCC4)cc3c21 [pemigatinib] was 0.951.
As for `CCn1c2ccccc2c2cc(Nc3ccnc(NCCCN4CCOCC4)n3)ccc21` + CCN1C(=O)N(c2c(F)c(OC)cc(OC)c2F)Cc2cnc3[nH]c(CN4CCOCC4)cc3c21 [pemigatinib], the cell viability amounted to 0.985.
As for `CC1(C)S[C@@H]2[C@H](NC(=O)[C@H](NC(=O)N3CCNC3=O)c3ccccc3)C(=O)N2[C@H]1C(=O)O` [Azlocillin sodium salt] + CCN1C(=O)N(c2c(F)c(OC)cc(OC)c2F)Cc2cnc3[nH]c(CN4CCOCC4)cc3c21 [pemigatinib], the figure is 0.915; as for `O=C(N/N=C/c1cc(O)c(O)cc1O)c1cc2ccccc2cc1O` [Dyngo-4a] + CCN1C(=O)N(c2c(F)c(OC)cc(OC)c2F)Cc2cnc3[nH]c(CN4CCOCC4)cc3c21 [pemigatinib], 0.924; as for `CC(C(=O)O)c1ccc2c(c1)Cc1cccnc1O2` (centres undefined) [Pranoprofen] + CCN1C(=O)N(c2c(F)c(OC)cc(OC)c2F)Cc2cnc3[nH]c(CN4CCOCC4)cc3c21 [pemigatinib], 0.985.
`Clc1ccc(NN=C(c2ccccc2)c2ccccn2)nc1` + CCN1C(=O)N(c2c(F)c(OC)cc(OC)c2F)Cc2cnc3[nH]c(CN4CCOCC4)cc3c21 [pemigatinib]: the cell viability was found to be 0.33.
Regarding `C[N+]1(C)[C@@H]2C[C@@H](OC(=O)C(O)(c3cccs3)c3cccs3)C[C@H]1[C@@H]1O[C@@H]12` [Tiotropium Bromide hydrate] + CCN1C(=O)N(c2c(F)c(OC)cc(OC)c2F)Cc2cnc3[nH]c(CN4CCOCC4)cc3c21 [pemigatinib], the cell viability stood at 0.982.
As for `CC(=O)Nc1ccccc1` [Acetanilide] + CCN1C(=O)N(c2c(F)c(OC)cc(OC)c2F)Cc2cnc3[nH]c(CN4CCOCC4)cc3c21 [pemigatinib], the figure is 0.903.
On to `O=C(/C=C/c1ccc2ccccc2n1)c1ccncc1` + CCN1C(=O)N(c2c(F)c(OC)cc(OC)c2F)Cc2cnc3[nH]c(CN4CCOCC4)cc3c21 [pemigatinib], for which the cell viability stood at 1.02.
As for `Cc1cc(C(N)=O)ccc1-n1c(CCC(=O)O)ccc1-c1ccc(-n2ccnc2)cc1` + CCN1C(=O)N(c2c(F)c(OC)cc(OC)c2F)Cc2cnc3[nH]c(CN4CCOCC4)cc3c21 [pemigatinib], the figure is 0.909; as for `COC(=O)C[C@H](NC(=O)[C@H](C)NC(=O)[C@@H](NC(=O)OCc1ccccc1)C(C)C)C(=O)CF` + CCN1C(=O)N(c2c(F)c(OC)cc(OC)c2F)Cc2cnc3[nH]c(CN4CCOCC4)cc3c21 [pemigatinib], 0.945.
Regarding `COC(=O)C1=C(C)NC(C)=C(C(=O)OCCN2CCN(C(c3ccccc3)c3ccccc3)CC2)C1c1cccc([N+](=O)[O-])c1` (centres undefined) [Manidipine] + CCN1C(=O)N(c2c(F)c(OC)cc(OC)c2F)Cc2cnc3[nH]c(CN4CCOCC4)cc3c21 [pemigatinib], the cell viability turned out to be 0.888.
As for `COC(=O)C1=C(C)NC(C)=C(C(=O)OCCN2CCN(C(c3ccccc3)c3ccccc3)CC2)C1c1cccc([N+](=O)[O-])c1` (centres undefined) [Manidipine 2HCl] + CCN1C(=O)N(c2c(F)c(OC)cc(OC)c2F)Cc2cnc3[nH]c(CN4CCOCC4)cc3c21 [pemigatinib], the figure is 0.935.
